Measured values taken from PubChem BioAssay AID686978 (National Center for Advancing Translational Sciences (NCATS), 2013).
Several values for one entry are separate records, joined by “and”; a condition that tells them apart may be missing. Equal values may be shown once. About 64,000 (15%) of roughly 420,000 compounds were called active. The shares of active, inactive and inconclusive entries below differ from those in the screen. Calls follow the shape of the dose curve; as a rule, active = well fitted inhibition curve with a large enough effect; inconclusive = small, poorly fitted or top-dose-only effect; inactive = flat fitted curve, though single readings scatter. No potency is given beside an inconclusive call; the fits are too rough.

Test: qHTS for Inhibitors of human tyrosyl-DNA phosphodiesterase 1 (TDP1): qHTS in cells in absence of CPT; also: nearly all actives have a fitted effect of over 55% in size
Conditions: DT40 Tdp1-/- hTDP1 cells, no CPT, ATP luminescence, 48 h; activity change, negative = growth inhibition: at 46.2 µM (top of the series)
Procedure, shortened: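 Readout: luminescence from CellTiter-Glo after 30 min in the dark at RT. Cells: DT40 Tdp1-/- with stable hTDP1, 400/well. Exposure: compounds alone, ≥48 hr, 37 °C.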
% is scaled to controls: 0 for no effect and ±100 for the full control effect; potency is read from the fitted curve at half-maximal effect; tags tell the direction and shape of the fitted curve.

Structure (SMILES)	activity change, negative = growth inhibition	Potency
CC1CCCC(NC(=O)C2CC(=O)N(Cc3ccccc3)C2)C1C (stereo unspecified)	inactive: 25.2%	
CCCc1[nH]nc2c1C(c1ccc(OC(=O)N3CCOCC3)cc1)C(C#N)=C(N)O2 (stereo unspecified)	inactive: -14.4%	
Brc1ccc(CN2C3=NCCCN3c3ccccc32)cc1		inconclusive [inhibitor, partial curve]
OC[C@H]1O[C@H](n2cnc3c(NC4CCCC4)nc(Cl)nc32)[C@@H](O)[C@@H]1O	inactive: -2.68%	
Cc1ccc(S(=O)(=O)N2[C@H](CC(=O)c3ccc(Cl)c(Cl)c3)OC[C@@H]2C)cc1		inconclusive [inhibitor, single point]
CCOCCCNC(=O)C(c1ccc(OC)cc1)N(Cc1cccs1)C(=O)c1ccc(NC(C)=O)cc1 (stereo unspecified)		active: 11.6 µM
COc1ccc2c(c1)C(C)=CC(C)(C)N2S(=O)(=O)c1ccc(C)cc1		active: 5.17 µM
CCN(C(=O)COC(=O)C12CC3CC(CC(NC(C)=O)(C3)C1)C2)C1CCCCC1		active: 20.6 µM
Fc1cccc(-c2nc(-c3ccncc3)no2)c1	inactive: -7.69%	
Cc1cccc(OCC(=O)Nc2ccc3c(c2)C(=O)NC3=O)c1	inconclusive: -34% [inhibitor]	
c1ccc2ncc(-n3ccnc3)cc2c1	inactive: -19.7%	
CC(=O)Cn1cnc2c(sc3nc(C)cc(C)c32)c1=O		inconclusive [inhibitor, partial curve]
CC(=O)c1c(C)[nH]c(C(=O)Nc2cccc(C)c2C)c1C	inactive: -10.3%	
NS(=O)(=O)c1ccc(CCNC(=O)COC(=O)COc2cccc(C(F)(F)F)c2)cc1	inactive: 5.08%	
COc1ccc(S(=O)(=O)N2CCCCC2)cc1NC(=O)COc1ccccc1		inconclusive [inhibitor, single point]
O=C(Cc1coc2cc3c(cc12)CCC3)NC1CCCCCCC1		active: 0.0206 µM
Cc1c(CCOC(=O)c2ccc(Cl)cc2Cl)sc[n+]1CC(=O)c1ccc(Br)cc1		active: 18.4 µM
Cc1c(CCOC(=O)CC23CC4CC(CC(C)(C4)C2)C3)sc[n+]1CC(=O)c1ccccc1		active: 16.4 µM
Cc1cc(C)cc(OCC(=O)Nc2ccc(N3CCCC3)cc2)c1	inactive: -14.4%	
N/C(=N\c1nc2ccccc2o1)NC(=O)c1ccc([N+](=O)[O-])cc1	inconclusive: -33.4% [inhibitor]	
CC1(C)CC(NC(=O)COc2ccc3ccc(=O)oc3c2)CC(C)(C)N1	inactive: 23.7%	
CC(=O)Nc1ccccc1C(=O)C(=O)Nc1cccc(C(=O)N2CC(C)CC(C)C2)c1 (stereo unspecified)		inconclusive [inhibitor, single point]
Cc1ccc(C(C)(C)C)c(OCCCCN2CCCC2)c1		active: 29.1 µM
COC(=O)/C=C/C(=O)Nc1ccc(O)c(Cl)c1		inconclusive [inhibitor, single point]
Cn1c(NCCc2ccccc2)cc(=O)n(C)c1=O	inactive: -15.8%	
COc1ccc(CNC(=O)Cn2ccc3cc(S(=O)(=O)N4CCCCCC4)ccc32)cc1OC		inconclusive [inhibitor, single point]

Structure (SMILES)	activity change, negative = growth inhibition	Potency
CCOc1ccc(N2C(=O)CC(NNc3nc4ccccc4s3)C2=O)cc1 (stereo unspecified)	inactive: -12%	
Cc1ccc(-c2nc3ccc(C)cn3c2Cc2cccc(F)c2)cc1		inconclusive [inhibitor, single point]
Cc1cc(NC(=O)c2ccc3c(c2)C(=O)N(c2cccc(C)c2C)C3=O)no1	inactive: -1.87%	
COc1ccc(Cc2nnc(NC(=O)Nc3ccccc3OC)s2)cc1		inconclusive [inhibitor, single point]
COc1cccc(-c2cn3c(n2)sc2cc(C(=O)NCc4cccs4)ccc23)c1		active: 6.51 µM
CCOC(=O)CSc1nc2cc(S(=O)(=O)N3CCOCC3)ccc2n1CC	inactive: -17.1%	
COc1ccc(/C=N/NC(=O)CCn2cnc(-c3ccccc3)c2-c2ccccc2)cc1		active: 0.651 µM
CCCn1c(=O)c(C(=O)NNS(=O)(=O)c2ccc(C)cc2)c(O)c2ccccc21		inconclusive [inhibitor, single point]
O=C(Nc1ccccc1)/C(=C/c1ccccc1)c1ccccc1		active: 11.6 µM
Cc1[nH]nc2c1-c1nc3ccccc3nc1C(C)(C)C2		inconclusive [inhibitor, single point]
Cc1ccc(C(=O)NCC(=O)NCC(c2cccs2)N(C)C)cc1C (stereo unspecified)	inactive: -2%	
COc1ccc2oc(=O)cc(CN3CCN(C(=O)c4ccccc4F)CC3)c2c1		inconclusive [inhibitor, single point]
CC(C)=NOC(=O)c1c(C)noc1-c1snnc1C	inactive: -2.36%	
O=C(Nc1nc(-c2cccs2)cs1)c1cccc(S(=O)(=O)N2CCCCC2)c1		active: 25.9 µM
COc1ccc(NC(=O)C2CCN(S(=O)(=O)c3cccs3)CC2)cc1OC		inconclusive [inhibitor, single point]
C=CCn1nnnc1-c1cccc(Cl)c1		inconclusive [inhibitor, single point]
COc1cccc(NC(=S)NC2CC3CCCC(C2)N3C2CCCC2)c1 (stereo unspecified)		inconclusive [inhibitor, single point]
COc1ccc(C)c2sc(N(CCCN(C)C)C(=O)c3ccc4c(c3)OCCO4)nc12		inconclusive [inhibitor, single point]
COc1ccc(-c2cnnn2-c2ccc(NC(=O)c3ccco3)cc2)cc1OC	inactive: -6.46%	
O=C(CC(c1ccccc1)c1ccccc1)N1CCN(c2ccccn2)CC1		active: 18.4 µM
CCOC(=O)C1=C(c2ccccc2)NC(N)=NC1c1ccc(OCc2ccc(C(=O)OC)cc2)cc1 (stereo unspecified)		active: 13 µM
COc1ccc(CN2C(=O)CCC2(C)c2nnnn2C2CCCCC2)cc1 (stereo unspecified)		inconclusive [inhibitor, single point]
COC(=O)c1sccc1NC(=O)Nc1cccc(Cl)c1Cl		inconclusive [inhibitor, single point]
CCOc1ccc(S(=O)(=O)Nc2cc(C)ccn2)c2ccccc12		inconclusive [inhibitor, partial curve]
COc1ccc2c(c1)CC(N1CCN(C)CC1)c1cc(OC)ccc1S2 (stereo unspecified)		inconclusive [inhibitor, single point]
Cc1ccc(Cl)cc1N1CCN(C(=O)c2cc(S(=O)(=O)N3CCC(C)CC3)cn2C)CC1		active: 14.6 µM

Structure (SMILES)	activity change, negative = growth inhibition	Potency
CCOC(=O)c1sc(N/N=C/c2ccc(N(C)C)cc2)nc1C	inactive: -2.7%	
C=CCc1cc(Cl)ccc1OCCOCCNC(C)CC (stereo unspecified)		inconclusive [inhibitor, single point]
Cc1ccc(S(=O)(=O)Nc2ccc(C(=O)Nc3ccncc3)cc2)cc1		inconclusive [inhibitor, partial curve, poor fit]
O=C(Nc1cccc(S(=O)(=O)c2cccc(NC(=O)C3CC3)c2)c1)C1CC1		active: 20.6 µM
COc1ccc(CCN2CC(C(=O)NC3CCOCC3)CCC2=O)cc1 (stereo unspecified)	inactive: 6.3%	
Cc1ccnc2cc(Cl)c(Cl)cc12		inconclusive [inhibitor, single point]
CC(C)(C)NC(=O)c1cccc2c1OC(C)(C)C2		inconclusive [inhibitor, single point]
CCn1c(SCC(=O)N(C)C)nc2cc(S(=O)(=O)N3CCCCC3)ccc21	inactive: -19.6%	
C=C1C=C(C)n2ncc(C(=O)Nc3cccc(C(=O)Nc4cccc(C(F)(F)F)c4)c3)c2N1		inconclusive [inhibitor, full curve]
COc1ccc(/C=N/Nc2nc(C)cc(-c3ccccc3)n2)cc1OC		inconclusive [inhibitor, single point]
COc1ccc(OCC(=O)Nc2cccc(NC(=O)c3ccco3)c2)cc1		inconclusive [inhibitor, single point]
CN(C)CCNC(=O)C(=O)Nc1cc2c3c(c1)CCN3C(=O)CC2	inactive: -1.44%	
CC(=O)Nc1ccc(NC(=O)CC2Sc3ccccc3NC2=O)cc1 (stereo unspecified)		inconclusive [inhibitor, full curve, poor fit]
Cc1ccc(CSc2nnc(Cn3c(=O)sc4ccccc43)n2C)cc1		inconclusive [inhibitor, single point]
Cc1c(CNCc2ccc(Cl)cc2)c(C(=O)O)c(C)n1Cc1ccc(F)cc1		inconclusive [inhibitor, partial curve]
Cc1ccc(S(=O)(=O)c2ccc(Cl)cc2)cc1S(=O)(=O)N1CCOCC1		inconclusive [inhibitor, single point]
CCOc1ccc(CNS(=O)(=O)c2ccc3[nH]c4c(c3c2)CCCC4)cc1OC		active: 23.1 µM
Cc1cc(C)c(NC(=O)c2ccc(S(=O)(=O)N(C)C)cc2)c(C)n1	inactive: -14.7%	
COc1cccc(OCC(=O)NCC2CCCO2)c1 (stereo unspecified)	inactive: 12.2%	
Cc1ccc(-c2nc(N)sc2CC(=O)OCC(=O)NC2CCCC(C)C2C)cc1 (stereo unspecified)		inconclusive [inhibitor, single point]
CCn1c(SCC(=O)Nc2ccccc2OC)nc2ccccc2c1=O		inconclusive [inhibitor, single point]
COc1ccc(Cl)cc1NC(=O)[C@@H]1CCCN1C(=O)c1cccs1		inconclusive [inhibitor, partial curve]
O=C(CCN1CCC(c2ccccc2)C1)c1ccc2c(c1)OCCO2 (stereo unspecified)		active: 1.88 µM and active: 1.84 µM
O=C(NC1CCN(C(=S)Nc2ccc(F)cc2)CC1)c1ccco1	inactive: -9.48%	
